The text below walks through data of PubChem BioAssay AID1347073 (National Center for Advancing Translational Sciences (NCATS), 2019).

In all, about 45,000 compounds went through this assay and about 200 (0.44%) were called active. Roughly 7% stayed inconclusive and do not appear here. The call rests on the fitted dose curve; in most records, active means well fitted activation curve with a large enough effect; inconclusive means small, poorly fitted or top-dose-only effect; inactive means no such curve, though single readings can be large or run the other way. Some of the results follow.

This test is described as follows: qHTS of TDP-43 Inhibitors: NCGC Sytravon Library Screen. Further: 0% is about no effect; nearly all actives have a fitted effect of over 55% in size. Conditions: yeast TDP-43 toxicity rescue, BacTiter-Glo growth, 24 h; series mostly up to 46.1 µM; growth rescue (activation): at the top concentration. The method in brief:
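TDP-43-expressing yeast, pregrown in raffinose, seeded at OD600 0.02 in galactose medium with compound for 24 hr at 30 deg C. Growth read by BacTiter-Glo luminescence, so rescue of toxicity appears as activation.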
As to `O=C(CCc1nnc(C2CCCCC2)o1)NCc1cccc(-n2cccn2)c1`, the “growth rescue (activation)” value is inactive: 6.07%.
`O=C(CCNC(=O)c1ccc([N+](=O)[O-])cc1)Nc1ccc(N2CCOCC2)cc1N1CCOCC1`: the “growth rescue (activation)” value was inactive: 9.1%.
With `CC1(C)C(C=C(Cl)Cl)C1C(=O)Nc1ccc([N+](=O)[O-])cc1` (centres undefined) the figure was inactive: -92.4%; with `Cc1cccc(NC(=S)N2CCC(C(=O)c3ccc(F)cc3)CC2)c1`, inactive: 13.6%.
The result for `CC1(C)C2([N+](=O)[O-])CN3CC1([N+](=O)[O-])CN(C2)C3c1ccc(O)c(O)c1` (centres undefined) reads inactive: 29.2%; that for `Cc1ccc(C2C(C(=O)c3cccs3)=C(O)C(=O)N2c2ccc(S(N)(=O)=O)cc2)cc1` (centres undefined), inactive: 12.2%; that for `CN(c1ccc(C(=O)N2CCCCC2)cc1)S(=O)(=O)c1cccs1`, inactive: -16.7%.
Turning to `Cc1ccc(NC(=O)CCC(=O)NNC(=O)NC2CCCCC2)c(C)c1`, the “growth rescue (activation)” value was inactive: 11.3%.
The result for `Cc1cccc(NC(=O)c2cccc(S(=O)(=O)Nc3ccccc3C(=O)O)c2)c1` reads inactive: 14.5%; that for `S=C(NCCc1ccccc1)N1CCN(C2CCCCC2)CC1`, inactive: 10.8%.
The result for `CC1(C(=O)NCCC(F)(F)F)Cc2c(-c3ccccc3)ccnc2O1` (centres undefined) reads inactive: -2.29%; that for `O=C(O)c1c(Cl)c(Cl)c(Cl)c(Cl)c1C(=O)N1CCOCC1`, inactive: 9.08%.
For `O=C1COc2ccc(S(=O)(=O)NCc3ccccc3)cc2N1`, the “growth rescue (activation)” value is inactive: 4.34%.
With `O=C(COc1ccccc1[N+](=O)[O-])Nc1ccc(NC(=O)c2cc3ccccc3o2)cc1` the figure was inactive: 12%; with `COC(=O)c1c(NC(=O)CCl)sc(C(=O)N2CCOCC2)c1C`, inactive: 14.2%.
The result for `Cc1ccccc1NC(=O)CSc1cn[nH]n1` reads inactive: 18.5%; that for `O=C(NCC1CCCO1)c1ccc(CS(=O)(=O)Cc2ccc(F)cc2)o1` (centres undefined), inactive: -16.2%.
Turning to `O=C(Cc1coc(-c2ccc(F)cc2)n1)NCc1ccccc1`, the “growth rescue (activation)” value was inactive: 30%.
The result for `O=C(NCCc1ccccc1)C1CCN(C2CCN(C(=O)CC3=CCCCC3)CC2)CC1` reads inactive: 2.52%.
The result for `COc1ccc(O)c(/C=N/n2c(-c3ccco3)csc2=Nc2cccnc2)c1` reads inactive: 2.18%; that for `Cc1nc2sccn2c(=O)c1S(=O)(=O)Nc1ccc(N2CCN(C(=O)C(C)C)CC2)cc1`, inactive: 4.06%.
As for `COC(=O)Nc1ccc(S(=O)(=O)Nc2ncccn2)cc1`, the “growth rescue (activation)” value was inactive: -5.98%.
The result for `COc1cccc(N2CCN(C(=O)c3ccc(N4C(=O)NC5CC4(C)Oc4ccccc45)cc3)CC2)c1` (centres undefined) reads inactive: 28.7%; that for `CC(=O)Nc1ccccc1OCC(=O)N(Cc1ccccc1)C(C)C`, inactive: -6.94%.
Regarding `CC(C(=O)Nc1ccc(F)c(F)c1F)N(C)CC(=O)Nc1ccccc1Br` (centres undefined), the “growth rescue (activation)” value was inactive: 30.6%.
Consider `O=C(c1cccc(Oc2ccccc2)c1)N1CCN(c2ccccn2)CC1`, for which the “growth rescue (activation)” value is inactive: 9.68%.
The result for `CN(Cc1nnc(-c2ccc(F)cc2)o1)c1ccccc1` reads inactive: 19.3%; that for `O=C(O)C1=NOC(CNC(=O)c2ccccc2Cl)C1` (centres undefined), inactive: -1.42%.
The result for `COc1ccc(C2C(C#N)=C(N)Oc3c2ccc2cccnc32)cc1OC` (centres undefined) reads inactive: -2.01%.
